Measurements reported in article PMC4336329 (PLoS ONE, 2015).
Hit rate of the full screen: of about 310,000 compounds, about 2,200 (0.71%) showed an effect of 50% or more. Effects have a minus sign here. The list shows a part of the results.

These compounds were tested against human ether-à-go-go-related gene (hERG) potassium channel (human, UniProt Q12809) (assay: primary screen, population patch clamp on CHO cells stably expressing hERG).
Chain of human ether-à-go-go-related gene (hERG) potassium channel (Q12809 whole entry, looked up): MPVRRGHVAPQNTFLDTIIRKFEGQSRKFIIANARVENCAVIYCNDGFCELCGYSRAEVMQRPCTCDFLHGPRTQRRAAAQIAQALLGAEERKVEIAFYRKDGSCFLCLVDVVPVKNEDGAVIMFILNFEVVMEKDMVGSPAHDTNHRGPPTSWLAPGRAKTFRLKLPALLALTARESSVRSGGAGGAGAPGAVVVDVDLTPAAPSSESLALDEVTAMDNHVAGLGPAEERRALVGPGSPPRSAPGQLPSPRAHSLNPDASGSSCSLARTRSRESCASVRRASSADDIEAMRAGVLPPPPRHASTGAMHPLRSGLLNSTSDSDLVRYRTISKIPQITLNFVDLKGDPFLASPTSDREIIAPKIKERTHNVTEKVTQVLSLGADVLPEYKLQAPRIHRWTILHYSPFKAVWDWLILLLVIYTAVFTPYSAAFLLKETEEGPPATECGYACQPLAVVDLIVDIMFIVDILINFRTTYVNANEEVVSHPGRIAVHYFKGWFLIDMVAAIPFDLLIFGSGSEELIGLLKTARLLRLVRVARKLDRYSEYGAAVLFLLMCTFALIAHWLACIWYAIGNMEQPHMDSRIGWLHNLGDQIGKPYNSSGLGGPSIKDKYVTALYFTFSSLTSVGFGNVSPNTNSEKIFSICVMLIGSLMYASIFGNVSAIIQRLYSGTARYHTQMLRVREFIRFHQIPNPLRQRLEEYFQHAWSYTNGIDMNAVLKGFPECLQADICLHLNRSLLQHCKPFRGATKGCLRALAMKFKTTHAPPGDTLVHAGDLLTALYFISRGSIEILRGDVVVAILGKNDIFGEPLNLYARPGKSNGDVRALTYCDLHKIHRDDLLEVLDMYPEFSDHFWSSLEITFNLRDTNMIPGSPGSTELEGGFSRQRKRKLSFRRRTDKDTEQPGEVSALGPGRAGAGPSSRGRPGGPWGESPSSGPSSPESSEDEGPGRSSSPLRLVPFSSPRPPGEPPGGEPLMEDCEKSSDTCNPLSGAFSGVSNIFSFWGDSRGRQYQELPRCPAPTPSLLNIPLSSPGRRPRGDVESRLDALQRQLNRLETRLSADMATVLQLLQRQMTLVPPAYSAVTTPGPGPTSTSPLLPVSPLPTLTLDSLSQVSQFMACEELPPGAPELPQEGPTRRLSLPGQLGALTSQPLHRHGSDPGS

| SMILES | hERG current change (%, negative = inhibition) at 1uM [%] |
| --- | --- |
| Cc1cccc2sc(N3CCN(C(=O)c4cccs4)CC3)nc12 | 14 |
| CCn1cc(C(=O)O)c(=O)c2cc(F)c(N3CCN(C(=S)NC(=O)c4ccccc4)CC3)cc21 | 16.9 |
| COc1cc(NC(=O)c2c(OC)cccc2OC)ccc1NC(=O)c1cc2ccccc2o1 | 11.2 |
| O=C1C2C3C=CC(C3)C2C(=O)N1c1ccc2ccccc2c1 (stereo not drawn) | 10.1 |
| Cc1ccc(C(=O)CCC(=O)N(C)CC(=O)Nc2c(Cl)cccc2Cl)cc1 | 13.4 |
| COc1ccccc1OCCCCCc1c(C)n[nH]c1C | 2.03 |
| COc1ccc(S(=O)(=O)NCc2ccc(F)cc2)cc1OC | 14.1 |
| Cc1cc2oc(C(=O)Nc3c(C)n(C)n(-c4ccccc4)c3=O)c(C)c2cc1C | 2.13 |
| CC1CCCN(C(=O)c2cccc(S(=O)(=O)N3CCCC3)c2)C1 (stereo not drawn) | 0.22 |
| Cc1cccc(NC(=O)Cc2nnc(NC(=O)Nc3ccccc3F)s2)c1 | 2.69 |
| CCC(C)NC(=O)COc1ccc(S(=O)(=O)N2CCOCC2)cc1 (stereo not drawn) | 7.49 |
| COc1ccccc1CN1CC(C(=O)NCc2cnn(C)c2)CCC1=O (stereo not drawn) | 9.14 |
| COc1ccccc1OC(C)C(=O)N1CCC(Cc2ccccc2)CC1 (stereo not drawn) | 11.2 |
| CCn1cc(C(=O)NNC(=O)c2ccc(Cl)cc2)c(=O)c2ccc(C)nc21 | 3.33 |
| Cc1nn(-c2ccccc2)c(C)c1NC(=O)COC(=O)c1cc(Cl)ccc1O | 10.9 |
| CC(C)CCC1(CCNC(=O)c2cccs2)CCOC(C)(C)C1 (stereo not drawn) | 11.8 |
| C=CCn1c(SCc2nc3c(c(=O)[nH]c(=O)n3CCCC)n2CCC)nnc1-c1ccccc1 | -33.8 |
| CCOc1ccc(N2CC(C(=O)NCc3ccco3)CC2=O)cc1 (stereo not drawn) | 13.9 |
| NS(=O)(=O)c1ccc(NC(=O)c2cc(=O)c3ccccc3o2)cc1 | 19.4 |
| Cc1cc(Nc2ccccc2F)n2nc(C)nc2n1 | 10.2 |
| Cc1cccc(C(=O)Oc2ccc3ccc(O)cc3c2)c1 | 13.2 |
| CC(C)NC(=O)NC(=O)COC(=O)c1ccccc1F | 7.65 |
| COc1ccc(CNC(=O)c2cc(-c3ccc(OC)c(OC)c3)on2)cc1 | 7.35 |

| SMILES | hERG current change (%, negative = inhibition) at 1uM [%] |
| --- | --- |
| CCn1c2ccc(C)cc2c2n[nH]c(=S)nc21 | 15.8 |
| CCn1c(SCC(=O)N2CCc3ccccc32)nc2c(c1=O)SC(C)C2 (stereo not drawn) | 3.15 |
| CCN(CC)c1ccc(/C=C2\C(=N)N3N=C(CC(=O)N4CCOCC4)SC3=NC2=O)cc1 | 13.9 |
| COc1ccc(/C(O)=C2/C(=O)C(=O)N(CCCN(C)C)C2c2ccc(Cl)cc2)cc1OC (stereo not drawn) | 10.7 |
| C#CCOCCOCCOCCNc1nc(N2CCN(C(=O)CCCCCCCCCCNC(=O)[C@H](CCCCN)n3cc(CCO)nn3)CC2)nc(N2CCN(C(=O)CCCCCCCCCCNC(=O)[C@H](CCCCN)n3cc(CCCC(=O)O)nn3)CC2)n1 | 10.1 |
| CC(=O)N1CCN(c2ccc(NC(=O)c3ccccc3Cl)cc2)CC1 | 4.11 |
| O=C(C1CCN(Cc2nc(-c3ccc(Cl)cc3)no2)CC1)N1CCOCC1 | 9.83 |
| Cc1ccc(NC(=O)c2cc(NC(=O)c3ccco3)ccc2N2CCCCC2)cc1 | 11 |
| C=CCn1c(SCC(=O)c2ccc(CNC(C)=O)o2)nc2ccccc2c1=O | 0.969 |
| Cc1cccc(N2C(=O)CCC2=O)c1 | 3.13 |
| CCN(CC)C(=O)COc1ccc2oc(C)c(C(=O)OC)c2c1 | 2.26 |
| O=C(Nc1ccon1)c1cc2c(s1)CCCC2 | -6.76 |
| Cc1ccc(/C=[N+](/[O-])C2SC(=S)N(C)C2(C)C)cc1 (stereo not drawn) | 16.3 |
| Cc1cc(C(=O)N2CCN(c3ncccn3)CC2)nn1C | -0.946 |
| CCC(C)C(Nc1ncnc2scc(-c3ccccc3)c12)C(=O)O (stereo not drawn) | 9.25 |
| COC(=O)C1=C(C)NC(=S)NC1c1ccc(OCC(=O)N2CC(C)OC(C)C2)c(OC)c1 (stereo not drawn) | 17.8 |
| O=C(COC(=O)CC1CCCC1)Nc1ccc(OC(F)F)cc1 | 20.6 |
| CCCN(CCC)CCCNC(=O)Cn1cnc2sc(C)c(S(=O)(=O)N3CCC(C)CC3)c2c1=O | 14.2 |
| COc1cc(C2Nn3c(nnc3-c3ccccc3OC)S2)ccc1O (stereo not drawn) | 14.9 |
| CCN(CCNC(=O)C1CCN(c2nnc(-n3cccc3)s2)CC1)c1ccccc1 | 7.66 |
| CC(NC(=O)c1ccccc1Cl)C1COc2ccccc2O1 (stereo not drawn) | 7.74 |
| CCC1(CC)C(=O)C(C)(C)C(=O)OC1c1cccs1 (stereo not drawn) | -11.2 |
| COc1cccc(C(=O)OCn2nnc3ccccc3c2=O)c1 | 9.35 |

| SMILES | hERG current change (%, negative = inhibition) at 1uM [%] |
| --- | --- |
| O=C(c1ccco1)N1CCN(S(=O)(=O)c2cccc(C(F)(F)F)c2)CC1 | 7.47 |
| C=CCn1c(SCC(=O)N(C)c2c(N)n(Cc3ccccc3)c(=O)[nH]c2=O)nnc1-c1ccccc1OC | 10.5 |
| CC(=O)Nc1ccc(NC(=O)CSc2nccn2Cc2ccc(Cl)cc2)cc1 | 11.6 |
| CCCCCc1c(C)nc(N2CCOCC2)[nH]c1=O | 11.2 |
| Cc1ccc(OCC(=O)NCC2CCCO2)c(C)c1 (stereo not drawn) | 11.6 |
| COc1cc(C(=O)OC(C)C(=O)Nc2ccc3c(c2)OCO3)ccc1OCc1c(C)noc1C (stereo not drawn) | 16.5 |
| C=CCNC(=O)Cn1nc(-c2ccccc2)ccc1=O | 6.7 |
| Cc1cc(C)c(C#N)c(OCC(=O)c2ccc(Br)cc2)n1 | 12.6 |
| Cc1cccc(NS(=O)(=O)c2cccc(C(=O)N3CCN(S(=O)(=O)c4ccccc4)CC3)c2)c1 | 6.66 |
| CC(C)C(=O)Nc1ccc2c(c1)nc(CCN1CCCCC1)n2C | 8.94 |
| Cc1ccc2[nH]c3c(c2c1)CN(C(=O)CN1CCN(c2cccc(C)c2C)CC1)CC3.Cl | 8.51 |
| Cc1cc(C)c(S(=O)(=O)Nc2cccc(S(=O)(=O)N3CCOCC3)c2)c(C)c1 | 3.29 |
| Cc1csc(-c2coc3cc(O)cc(C)c3c2=O)n1 | 12.2 |
| Cc1nn(Cc2ccccc2Cl)c(C)c1C(=O)NCC(c1cccs1)N1CCOCC1 (stereo not drawn) | 7.73 |
| O=c1[nH]c(=S)n(-c2ccccc2)c(O)c1/C=N/N1CCOCC1 | -9.19 |
| CCC(=O)N1CCC2(CC1)Oc1ccc(Cl)cc1C(=O)C21CC(c2ccccc2)=NO1 (stereo not drawn) | 19.1 |
| CCOC(=O)c1sc(NC(=O)c2ccco2)c(C#N)c1C | 9.25 |
| COc1ccc(C(C)=O)cc1CSc1nc2ccccc2o1 | 10.7 |
| Cc1ccc(NC(=O)c2ccc3ccccc3n2)nc1 | 6.59 |
| CCOC(=O)Cn1ccc(NC(=O)c2ccc(F)cc2)n1 | 10.6 |
| CCN(CC)C(=S)NC(=O)c1ccc(Cl)cc1Cl | 9.21 |
| O=C(O)c1ccc(N/N=C/C=C/c2ccc([N+](=O)[O-])o2)cc1 | 9.41 |
| CCCn1c(=O)c2ccccc2n2c(SCCOc3ccccc3)nnc12 | 4.76 |

| SMILES | hERG current change (%, negative = inhibition) at 1uM [%] |
| --- | --- |
| COC(=O)[C@H](CCSC)NC(=O)NCCc1ccc(F)cc1 | 5.97 |
| Cc1ccc(S(=O)(=O)Nc2ccc(O)c3cccnc23)cc1 | 2.8 |
| CSc1ccc(S(=O)(=O)NCc2ccc(Cl)cc2)cc1 | -8.66 |
| CCOc1ccc(N2CC(C(=O)Nc3ccc4c(c3)OCCO4)CC2=O)cc1 (stereo not drawn) | 13.2 |
| CCOC(=O)[C@H]1[C@H]2COc3ccc(Cl)cc3[C@@H]2N2C(=O)CNC(=O)[C@@]12C | 20.5 |
| CCOC(=O)c1sc(NC(=O)C(CC)Sc2nc3ccccc3[nH]2)nc1C (stereo not drawn) | 4.28 |
| CN1CCCNc2nc3ccccc3nc21 | 11.3 |
| O=C(O)C1(Cc2nc3ccccc3[nH]2)CCCC1 | 17.6 |
| Nc1cnn(C2CCCO2)c(=O)n1 (stereo not drawn) | 13 |
| Cc1ccc(CN2CCN(Cc3nc(C(C)C)cs3)CC2CCO)cc1 (stereo not drawn) | -50.8 |
| CC(=O)Nc1ccc2c(c1)CCC2=O | -6.12 |
| COC(=O)c1ccc(CSc2cc(C)c3cccc(C)c3n2)o1 | 1.89 |
| COC(=O)c1ccccc1NC1CC(=O)N(c2c(C)cccc2C)C1=O (stereo not drawn) | 5.32 |
| CCCc1cc(C(=O)NCc2cccs2)no1 | 8.75 |
| COc1ccc(OC)c2sc(NC(=O)C(C)C)nc12 | 5.32 |
| Cc1ccc(NC(=O)NNC(=O)c2cc3ccccc3cc2O)cc1 | 19 |
| Nc1nccnc1C(=O)N/N=C/c1ccco1 | 13.2 |
| CCC1(c2ccccc2)NC(=O)N(CC(=O)Nc2ccccc2C(=O)N2CCCCC2)C1=O (stereo not drawn) | 8.29 |
| CCCSc1ncnc2c1oc1ccccc12 | -3.78 |
| CS(=O)(=O)N(CC(=O)N/N=C/c1cccs1)c1cccc(Cl)c1Cl | 2.6 |
| Cc1ccc(CNC(=O)CN(CCc2ccccc2)S(C)(=O)=O)cc1 | 1.12 |
